To fix the notation:
B1: OR4K15 (parent)
chain: GUUAACGGUCAUAGGCCAUGGAAACUAGGAGCACCAUUUCGCUGCCAGUGAAGAAAUGAACAAAGAAAAUCUGGGCCAGGCAGGCAUCAAAAGAAAUAGUCUUGCGCUCAACCAGAAAGUCUGUAAUCAUUUUAAGGGUA

The source gives no read counts; variants with many changes may rest on few reads.

The variants in the series derive from B1. Kind of series: self-cleavage, relative activity (ratio to wild type); higher = more cleavage; in vitro, sequencing; the parent is a self-cleaving ribozyme.
GUUAACGGUCAUAGGCCAUGGGAACUUGGAGCACCAUUUCGCUGCCAGUGAAGAAAUGAACAAAGAAAAUCUGGGCCAGGCAGGCAUCAAAAGAAAUAGUCUUGCGCUCAACCAGAAAGUCUGUACUCAUUUUAAGGGUA: the self-cleavage turned out to be 0.42.

For the variant GUUAACGGUCAUAGGCCAUGGGAUCUAGGAGCACCAUUUCGCUGCCUGUGAAGGAAUGAACAAAGAAAAUCUGGGCCAGGCAGGCAUCAAAGGAAGUAGUCUUGCGCUCAACCAGAUAGUCUGUAAUCAUUUUAAGGGUA, the self-cleavage is 0.47.

In the case of GUUAACGGUCAUAGGCCAUGGGAGCUAGGAGCACCAUUUCGCUGCCAGUGAAGAAAUGAACAAAGAAAAUCUGGGCCAGGCAGGCAUCAAAAGAAUUAGCCUUGCGCUCAACCAGAAUGUCUGUAAUCAUUUUAAGGGUA, the self-cleavage came to 0.17.

Turning to GUUAACGGUCAUAGGCCAUGGGAGCUAGGAGCACCAUUUCGCUGCCAGCGAAGAAAUGAACAAAGAAAAUCUGGGCCUGGCAGGCAUCAAAAGAAAUAGUCUUGCGCUCAACCGGAGAGUCUGUAAUCAUUUUAAGGGUA, the self-cleavage is 0.03.

In the case of GUUAACGGUCAUAGGCCAUGGGAACUAGGUGCACCAUUUCGCUGCCAGUGAAGAAAUGAACAAAGGAAAUCUGGGCCAGGCAGGCAUCAAAAGAAAUAGUCUUGCGCUCAACCAGAAAGUCUGUAAUCAUUUUAAGGGUA, the self-cleavage was determined as 1.7.

In the case of GUUAACGGUCAUAGGCCAUGGGAACUAGGGGCACCAUUUCGCUGCCUGUGAAGAAAUGAACAAAGAAAAUCUGGGCCAGGCAGGCAUCAAAAGAAAUAGUCUUGCGCUCAUCCAGAAAGUCUGUAAUCAUCUUAAGGGUA, the self-cleavage was determined as 0.03.

With GUUAACGGUCAUAGGCCAUGGGAUCUAGGAGCACCAUUUCGCUGCCAGUGAAGAAGUGAACAAAGAAAAUCUGGGCCAGGCAGGCAUCAAAAGAAAUAGUCUUGCGCUCAACCAGAAAGUCUGUAAUCAUUUUAAGGGUA, the self-cleavage is 1.54.

In the case of GUUAACGGUCAUAGGCCAUGGGAACUAGGGGCACCAUUUCGCUGCCAGUGAAGGAAUGAACAAAGAAAAUCUGGGCCUGGCAGGCAUCAAAAGAAAUAGUCUUGCGCUCAACCAGAAAGUUUGUAAUCAUUUUAAGGGUA, the self-cleavage was 0.51.

Regarding GUUAACGGUCAUAGGCCAUGGGAACUAGGGGCACCACUUCGCUGCCAGUGAAGAAAUGAACAAAGAAAAUCUGGGCCAGGCAGGCAUCAAAAGAAAUAGUCUUGCGCUCAACCAGAAUGUCUGUAAUCAUUUUAAGGGUG, the self-cleavage came out at 0.1.

With GUUAACGGUCAUAGGCCAUGGGAACUAGGAGCACCGUUCCGCUGCCAGUGAAGAAAUGAACGAAGAAAAUCUGGGCCAGGCAGGCAUCAAAAGUAAUAGUCAUGCGCUCAACCAGAAAGUCUGUAAUCAUUUUAAGGGUA, the self-cleavage was 0.85.

Take GUUAACGGUCAUAGGCCAUGGGGACUAGGAGCACCAUUUCGCUGCCAGAGAAGAAAUGAACAAAGAAAAUCUGGGCCAGGCAGGCAUCAAAAGAAAUAGUCUUGCGCUCAACCAGAAAGUCUGUAAUCAUUUUAAGGGAG: the self-cleavage was 0.37.

With GUUAACGGUCAUAGGCCAUGGGGACUAGGAGCACCAUUUCGCAGCCAGUGAAGAAAUGAACAAAGAAAAUCUGGGCCAGGCAGGCAUCAAAAGAAAUAGUCCUGCGCUCAACCAGAAAGUCUGUAAUCAUUUUAAGGGUA, the self-cleavage worked out at 1.72.

For the variant GUUAACGGUCAUAGGCCAUGGGAACUAGGUGCACCAUUUCGCUGCCAGUGAAGAAAUGAACAAAGAAAAUCUGGGCCAGGCAGGCAUCAAAAGAAUUAGUCUUGCGCUCAACCAGAAAGUCUGCAAUCAUUUUAAGGGUA, the self-cleavage worked out at 0.62.

As for GUUAACGGUCAUAGGCCAUGGGAACUAGGGGCACCAUUUCGCUGCCAGUGAAGAAACGAACAAAGAAAAUCUGGGCCAGGCAGGCAUCAAAAGAAAUAGUCUUGCGCUCAACCAGAAAGUCUGUAAUCAUUUUAAGGGUA, the self-cleavage amounted to 0.61.

Consider GUUAACGGUCAUAGGCCAUGGGAGCUAGGAGCACCAUUCCGCUGCCAGUGAAGAAAUGAACAAAGAAAAUCUGGGCCAGGCAGGCAUCAAAAGAAAUAGACUUGCGCUCAACCAGAAAGUCUGUAAUCAUUUUAAGGGUA, for which the self-cleavage was determined as 0.9.

Turning to GUUAACGGUCAUAGGCCAUGGGAACUAGGGGCACCAUUUCGCUGCCAGUGAAGAAAUGAACGAAGAAAAUCUGGGCCAGGCAGGCAUCAAAAGAAAUAGUCUUGCGCUCAACCAGAAAGUCUGUAAUCAUUUUAAGGGUA, the self-cleavage was determined as 1.85.

Take GUUAACGGUCAUAGGCCAUGGGAACUAGGAGCUCCAUUUCGCUGCCAGUGAAGAAAUGAACAAAGAAAAUCUGGGUCAGGCAGGCAUCAAAAGAAAUAGUCUCGCGCUCAACCAGAAAGUCUGUAAUCAUUUUAGGGGUA: the self-cleavage was determined as 0.07.

Take GUUAACGGUCAUAGGCCAUGGGAACUAGGAGCACCGUUUCGCUGCCAGUGAAGAAGUGAACGAAGAAAAUCUGGGCCAGGCAGGCAUCUAAAGAAAUAGUCUUGCGCUCAACCAGAAAGUCUGUAAUCAUUUUAAGGGUA: the self-cleavage was found to be 1.36.

GUUAACGGUCAUAGGCCAUGGGAACUGGGAGCCCCAUUUCGCUGCCAGUGAAGAAAUGAACAAAGAAAAUCUGGGCCAGGCAGGCAUCAAAAGAAAUAGUCUUGCGCUCAACCAGAAAGUCUGUAAUCAUCUUAAGGGUA: the self-cleavage amounted to 2.19.

Take GUUAACGGUCAUAGGCCAUGGGAGCUAGGAGCACCAUUUCGCUGCCAGUGAGGAAAUGAACAAAGAAAAUCUGGGCCAGGCAGGCAUCAAAAGAAAUAGUCUUGCGCUCAACCAGAAAGUCUGUAAUCAUUUUAAGGGAA: the self-cleavage is 1.24.

With GUUAACGGUCAUAGGCCAUGGGAACUGGGAGCACCAUUUCGCUGCCAGUGAAGAAAUGAACAAAGAAAAUCUGGGCCAGGCAGGCAUCAAAAGAAAUAGUCUUGCGCUCAACCAGAAGGUCUGUAAUCAUUUUAGGGGUA, the self-cleavage is 0.37.

Source of the values: the RNAGym collection of RNA variant scans (doi:10.7554/elife.90254).
